PubChem BioAssay AID1347417 (National Center for Advancing Translational Sciences (NCATS), 2020)
The campaign covered roughly 120,000 compounds. About 5,300 (4.4%) were called active. The shares of active, inactive and inconclusive entries below differ from those in the screen. The call rests on the fitted dose curve; in most records, active means well fitted inhibition curve with a large enough effect; inconclusive means small, poorly fitted or top-dose-only effect; inactive means no such curve, though single readings can be large or run the other way. Potencies beside an inconclusive call are fits to weak or partial responses and may not hold up.

Assay: qHTS Primary assay for Inhibitors of Plasmodium falciparum Dd2 growth in vitro; further: nearly all actives have a fitted effect of over 65% in size;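 on activity, negative = inhibition: plate controls were DMSO vehicle for no effect and reference drug for full effect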
Conditions: P. falciparum Dd2 growth, SYBR Green, 72 h; activity, negative = inhibition: at 28.9 µM (top of the series) unless noted; series mostly up to 28.9 µM
Method in brief: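 Readout: SYBR Green fluorescence, 485 nm excitation, 535 nm emission, after ~16 h lysis at 37C. Before that, Dd2-infected red cells (2.5% hematocrit) grew 72 h with compound, 29 uM top final concentration.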
Potency means the concentration at half of the fitted maximal effect; tags describe the fitted curve by direction and shape.

SMILES	Potency	activity, negative = inhibition
O=C(CC1CCCC1)N1CCC2(CC1)CC(N(Cc1ccccc1)C1CC1)CCO2 (stereo not given)	inconclusive: 10 µM [inhibitor, single point]	–
Cc1nc(C2CC(O)C2)cc(N2CCN(CCc3ccccc3)CC2)n1 (stereo not given)	inconclusive: 20 µM [inhibitor, single point]	–
CCN(C(=O)C(NS(=O)(=O)c1ccc(Br)s1)c1ccccc1)c1ccc(C)c(C)c1 (stereo not given)	inactive	–
CCN1c2cc(C(=O)Nc3ccc(C)cc3C)ccc2C(=O)N2CCCCCC21 (stereo not given)	inactive	–
CN1C(=O)CO[C@H]2CN(Cc3ccccn3)C[C@H]21	inactive	–
CCc1ccc(NC(=O)CNC(=O)Cn2c(C)cc3ccccc3c2=O)cc1	inactive	–
COCCn1ncc(N2CCC(C(=O)N3CCC(N(C)Cc4cccc(Cl)c4)CC3)C2)cc1=O (stereo not given)	inconclusive: 11.2 µM [inhibitor, single point]	–
O=C(c1ccc(Cl)cc1)N1CCC(N2CCCC2=O)CC1	inactive	–
COc1ccccc1-n1cc(C(=O)NCc2cc3n(n2)CCNC3)cn1	inactive	–
CC(C)C[C@@H]1N[C@H](C(=O)N2CCOCC2)Cc2cn(Cc3ccccn3)c3cccc1c23	inconclusive: 11.2 µM [inhibitor, partial curve, poor fit]	–
COc1cc(C2CC(=O)c3c([nH]c(C(=O)OC4CCCC4)c3C)C2)cc(OC)c1OC (stereo not given)	active: 5.62 µM	–
CCOC(=O)c1c(NC(=O)COc2ccccc2)sc(C(C)=O)c1C	inactive	–
CCN(C(=O)Cn1nc(Cc2ccncc2)c2ccccc2c1=O)c1ccc(OC)cc1	inconclusive: 10 µM [inhibitor, single point]	–
O=C(NCc1nnc2ccc(-c3ccc(Cl)cc3)nn12)c1ccc(Cl)s1	inactive	–
O=C1[C@@H]2C[C@@H](O)CN2C2(CN(Cc3ccccn3)C2)C(=O)N1Cc1ccccc1	inconclusive: 31.6 µM [inhibitor, single point]	–
COc1cccc(CC(=O)Nc2c(C(=O)N3CCN(c4ccccc4F)CC3)oc3ccccc23)c1	inconclusive: 10 µM [inhibitor, single point]	–
CCCC1=Nc2cc(C(=O)NC3CCCCC3)ccc2Sc2ccc(C)cc21	active: 10 µM	–
O=S(=O)(c1ccccc1)n1nc(-c2ccc(Cl)cc2)nc1NCc1ccccc1	inconclusive: 11.2 µM [inhibitor, partial curve]	–
CC1=C[C@@H](CC#N)[C@H](C(C)C)C[C@H]1CC(=O)N1CCN(CCO)CC1	inconclusive: 12.6 µM [inhibitor, single point]	–
COc1ccc(CCNC(=O)Cn2c(=O)nc(-c3ccccc3)c3cc(Cl)ccc32)cc1OC	inconclusive: 20 µM [inhibitor, single point]	–
CC(=O)c1cccc(NC(=O)c2ccc3c(c2)N(Cc2ccc(C)cc2)CCS3)c1	inconclusive: 11.2 µM [inhibitor, single point]	–
COCC1CN(C(C)=O)CC12CCN(C(=O)c1cc3ccccc3[nH]1)CC2 (stereo not given)	inactive	–
O=C(c1ccc2cc[nH]c2c1)N1CCC2(CC1)N=C(c1ccc(Cl)cc1)NO2	inconclusive: 2.51 µM [inhibitor, single point]	–
COc1ccc(-c2ccc3nnc(CNC(=O)C(C)Oc4ccc(Cl)cc4)n3n2)cc1 (stereo not given)	inconclusive: 3.16 µM [inhibitor, single point]	–

SMILES	Potency	activity, negative = inhibition
CCOc1ccc(NC(=O)c2c(NCc3cc(OC)c(OC)cc3OC)sc3c2CCCC3)cc1	inconclusive: 17.8 µM [inhibitor, single point]	–
Cc1noc(C2CC3(CCN(C(=O)C4CC4)CC3)CN2C)n1 (stereo not given)	inactive	–
COc1ccc(-c2cc3c(=O)n(CCNC(=O)c4cc(Cl)ccc4F)ccn3n2)cc1	inactive	–
COC(=O)c1ccccc1NC(=O)C(Cc1ccccc1)N1Cc2ccccc2C1=O (stereo not given)	inactive	–
CCn1c(-c2ccccc2)nn(CC(=O)NCc2noc(-c3ccco3)n2)c1=O	inactive	–
COc1ccc(C)cc1NC(=O)Cn1cc(S(=O)(=O)N2CCC(C)CC2)c2ccccc2c1=O	inconclusive: 3.98 µM [inhibitor, single point]	–
CCN(C(=O)c1ccc(-n2ccnc2-c2nc[nH]c2C)cc1)c1ccccc1	inactive	–
CC(=O)NCCC(=O)N1Cc2ccccc2CC2(CCN(CC3CCNCC3)CC2)C1	inactive	–
O=C(NCC1CCCO1)N1CCCn2cc(-c3ccccc3)nc21 (stereo not given)	inconclusive: 7.94 µM [inhibitor, single point]	–
O=C(C1CCCC1)N1CCCC(c2noc(COc3ccccc3)n2)C1 (stereo not given)	active: 8.91 µM	–
Cc1nn(-c2ccc(C(C)(C)C)cc2)c(C)c1[C@@H]1C=C[C@@H](NC(=O)NCc2ccccc2)C1	inconclusive: 2 µM [inhibitor, partial curve, poor fit]	–
Clc1ccc(CSc2nncn3c2cc2occc23)cc1	inconclusive: 10 µM [inhibitor, single point]	–
COc1cc2c(cc1OCc1ccccc1)N(C(=O)C1CCC(C)CC1)CC21CCN(C)CC1 (stereo not given)	inconclusive: 17.8 µM [inhibitor, single point]	–
Fc1ccc(CN2CCN(C3CCNC3)CC2)cc1Cl (stereo not given)	inconclusive: 17.8 µM [inhibitor, partial curve, poor fit]	–
O=C(Cc1ccc2c(c1)OCO2)N1CCc2c(n(CCOc3ccccc3)n(-c3ccccc3)c2=O)C1	inconclusive: 5.01 µM [inhibitor, partial curve, poor fit]	–
CCOC(=O)c1c(NC(=O)C(C)Sc2cn(CCNC(=O)c3ccc(OCC)cc3)c3ccccc23)sc2c1CCC2 (stereo not given)	inconclusive: 10 µM [inhibitor, single point]	–
COc1cccc(CNC(=O)c2ccc3c(c2)sc2nc(-c4cccc(OC)c4)cn23)c1	inconclusive: 11.2 µM [inhibitor, single point]	–
Cc1ncsc1CN1CCC[C@H]1C(=O)N1CCCCCCNC(=O)CC1	inconclusive: 1.41 µM [inhibitor, full curve, poor fit]	–
Cc1cc2[nH]c(=O)c(=O)[nH]c2cc1S(=O)(=O)N1CCN(c2ccccc2F)CC1	inactive	–
Cc1cc(C(=O)N2CCC(c3nnc(Cn4ccnc4)n3C)CC2)on1	inactive	–
CN1C(=O)CCCCC1C(=O)NCc1ccccc1 (stereo not given)	inactive	–
Cc1cccc(OCC(=O)N2[C@H]3CC[C@@H]2c2cnc(C)nc2C3)c1	inactive	–
CN(C)C(=O)C1=NOC2CN(C(=O)c3ccn(C)n3)CC12 (stereo not given)	–	inconclusive: -116% [inhibitor] [at 44.1 µM]
COc1ccc(CNC(=O)C(=O)NCC(c2cccnc2)N2CCN(c3ccccc3)CC2)cc1 (stereo not given)	inconclusive: 17.8 µM [inhibitor, single point]	–

SMILES	Potency	activity, negative = inhibition
CCCN1CCCc2cc(CN(CCCN3CCOCC3)C(=O)Nc3ccc(Cl)c(Cl)c3)ccc21	inconclusive: 8.91 µM [inhibitor, partial curve, poor fit]	–
COCc1cc(C[C@@H]2CC[C@H](O)[C@@H](CNC3CCCCC3)O2)no1	inconclusive: 28.2 µM [inhibitor, single point]	–
CC1=C(c2ccc(Cl)cc2)S(=O)(=O)N=C1N1CCN(c2cc(C)ccc2C)CC1	inactive	–
CN(Cc1cccc(C(F)(F)F)c1)C(=O)c1ccc(F)cc1	active: 11.2 µM	–
COc1ccc(CCC(=O)N2CCCN(S(=O)(=O)c3ccccc3)CCC(=O)NCC2)cc1	inconclusive: 20 µM [inhibitor, single point]	–
CNC(=O)c1ccc(NC(=O)c2nc(C(O)c3ccccc3F)oc2C)cc1 (stereo not given)	inactive	–
O=C(N[C@@H]1CCN(C(=O)c2n[nH]c3c2CCC3)C[C@H]1O)c1cccnc1	inactive	–
CC(C)CCN1CCC2(CNS(=O)(=O)c3cccnc3O2)C1 (stereo not given)	inconclusive: 10 µM [inhibitor, single point]	–
O=C(c1ccncc1)N1C2CCC1CN(c1ccc(C(F)(F)F)cc1)C2	inactive	–
Cc1nc(CN2CC3(CCN(C)C3)c3cc(C(=O)NCCc4ccccc4)ccc32)cs1 (stereo not given)	active: 11.2 µM	–
CC(=O)Nc1ccc(Nc2ccc3cc(S(=O)(=O)N4CCCCC4)ccc3n2)cc1	inactive	–
CN1[C@@H](CCC(=O)N2CCN(c3ccccn3)CC2)CNC(=O)[C@@H]2[C@H]1CCN2Cc1ncc[nH]1	inactive	–
Cc1ccc(CN2CCCC3(CNc4ccccc4[S+](=O)([O-])N3)C2)cc1 (stereo not given)	inactive	–
COCCCNC(=O)c1ccnc(-c2nnc3ccc(N(C)C)nn23)c1	inactive	–
O=C(NC1CCN(c2cc(-c3cccs3)[nH]n2)CC1)c1cc(Cl)ccc1F	inconclusive: 0.316 µM [inhibitor, full curve]	–
COc1ccc(-c2cc3ccc(O)c(CN4CCN(C)CC4)c3oc2=O)cc1OC	active: 11.2 µM	–
Cc1ccc(CN(C)C2CCc3nn(C)c(=O)n3CC2)o1 (stereo not given)	inactive	–
O=C(NC1CC1)[C@@H]1CN(Cc2ccc(F)cc2F)C[C@H]1CO	inconclusive: 5.01 µM [inhibitor, partial curve]	–
O=C(c1ccccc1)N1Cc2ccccc2CC2(CCCN2Cc2ccncc2)C1 (stereo not given)	inconclusive: 17.8 µM [inhibitor, single point]	–
COC(=O)N1CCC2(C1)C(=O)N(CCc1ccccc1)c1ccccc12 (stereo not given)	inconclusive: 7.08 µM [inhibitor, partial curve, poor fit]	–
CC(C)c1cnc(-c2ccncc2)[nH]1	inconclusive: 39.8 µM [inhibitor, partial curve, poor fit]	–
CCOC(=O)c1cc(-c2ccc(OC)c(S(=O)(=O)N3CCN(c4ccccc4)CC3)c2)on1	inconclusive: 17.8 µM [inhibitor, single point]	–
